Data: ChEMBL document CHEMBL4888484, “Replenishing the malaria drug discovery pipeline: Screening and hit evaluation of the MMV Hit Generation Library 1 (HGL1) against asexual blood stage Plasmodium falciparum ,using a nano luciferase reporter read-out” (2022)
Among all 150,000 compounds or so, about 540 (0.36%) showed an effect of 50% or more. Some of the results follow.

Tested on: Plasmodium falciparum
Experiment: Primary screen in NF54 nanoGlo assay, in single point, at 2uM, 72h; a lower Z score goes with more inhibition
Type: functional, Erythrocyte
Details: timepoint 72 hour

Row | SMILES | % Inhibition | Z score
1 | CCc1nn(Cc2nsc3ccccc23)c(=O)c(C#N)c1CC | -4% | 0.65
2 | CCOC(=O)c1cnn(-c2cccc(C)c2C)c1CN1CCC[C@H](c2nncn2C)C1 | 8% | -0.95
3 | CN(c1cc(C(=O)NCCC2=CCCCC2)c2ccccc2n1)C1CCCCC1 | -5% | 0.65
4 | COc1cccc(C(=O)N2CCN(C(=O)Cc3cnc(C)[nH]c3=O)CC2)c1 | -20% | 2.57
5 | Cc1cc(NC(=O)COc2ccc(F)cc2)n(Cc2cccc3ccccc23)n1 | -6% | 0.84
6 | Cc1noc(OCc2c(C)noc2C)n1 | 6% | -1.13
7 | Cc1nc2ccc(CNC(=O)[C@H](N)c3c(C)n[nH]c3C)cc2[nH]1 | -7% | 1.47
8 | CC1=C(C(=O)NCc2ccccc2)[C@H](c2cccc(F)c2)n2nnnc2N1 | -13% | 1.69
9 | COc1cc(NC(C)=O)c(-c2c(NC(C)=O)cc(OC)c(OC)c2OC)c(OC)c1OC | -8% | 1.42
10 | COc1ccc([C@H]2C[C@@H]2CC(=O)NCc2cncc(O)c2)cc1 | -2% | 0.24
11 | Cc1csc(NC(=O)CCc2cccs2)n1 | -14% | 2.63
12 | COc1cncc(O[C@H]2CCN(C(=O)N3CCOCC3)C2)n1 | -6% | 0.92
13 | O=C(CCCN1CCOCC1)NCC1(CO)CCC1 | 1% | -0.17
14 | CCN(CC(F)(F)F)C(=O)NCc1cnc(C)c(C)c1 | 7% | -0.98
15 | CC(C)NC(=O)CNC(=O)N1CC(C)(C)[C@H]1c1ccncc1 | 4% | -0.45
16 | C[C@@H]1CN(Cc2nnnn2CC(=O)N(C)Cc2cc3cc(F)ccc3[nH]2)C[C@H](C)O1 | -3% | 0.49
17 | O=C(O)CCN(CC1CC1)C(=O)c1noc2c1CCCC2 | -2% | 0.28
18 | Cc1ccc(C[C@H](C)NC(=O)C2(N)CC(O)C2)c(C)c1 (stereo partly drawn) | 28% | -3.6
19 | N#Cc1cc(N2CCN(c3ncc[nH]3)CC2)nc2ccc(Cl)cc12 | 1% | -0.07
20 | CCC[C@H]1CN(Cc2cnc(C)n2C)C[C@@H]1NC(=O)C1CCC1 | -10% | 1.93
21 | Cc1ncsc1CN(C)C(=O)N[C@@H](C)c1cnn(C)c1 | -2% | 0.24

Row | SMILES | % Inhibition | Z score
22 | COCCNC(=O)CCNc1ncc(Cl)cc1F | -9% | 1.17
23 | C[C@]1(O)CCN(C(=O)c2ccc3c(c2)CCCC3)C[C@H]1O | -6% | 1.14
24 | Cc1ccccc1C(C)NC(C)C(=O)O (stereo not drawn) | 5% | -0.78
25 | Cc1cc(COCC(=O)N2CCOC3(CCC3)C2)on1 | -15% | 1.56
26 | Cn1c(=O)c(Nc2ccc(Cl)cc2)c2c3c(cccc31)C(=O)c1ccccc1-2 | 2% | -0.33
27 | COCCN1CC(=O)N[C@H]2CN(c3ccc(C#N)cn3)C[C@@H]2OCc2cccc(c2)Oc2cc(ccc2OC)CCC1=O | 3% | -0.39
28 | CC1Oc2ccc(NC(=O)Nc3cccc(Cl)c3)cc2CN(C2CCCc3ccccc32)C1=O (stereo not drawn) | -7% | 0.79
29 | CC(N=C(N)NCc1ccc(Cl)cc1)C1CCCO1 (stereo not drawn) | -16% | 1.4
30 | CC(C)(C)[C@H](CO)NC(=O)c1cncnc1 | -15% | 2.29
31 | CC(C)(C)c1cc(CN2C[C@@H](CN3CCCCCC3)[C@@H](CO)C2)n[nH]1 | -5% | 0.72
32 | O=C(CN(Cc1cccc2nccn12)C[C@H]1CCCO1)N1CCCC1 | 5% | -0.44
33 | O=C(NC[C@H](O)c1ccccc1F)Nc1ccc2c(c1)OCCO2 | -15% | 1.4
34 | Cc1nonc1CN(C)C(=O)c1cc(Cn2cnc3ccccc32)on1 | 2% | -0.43
35 | Cc1ncc2c(n1)CCN(Cc1cn3ccccc3c1C#N)C2 | -4% | 0.58
36 | C#CCN1CCC(C(=O)N(c2ccccc2)[C@@H](CC)C(=O)OC)CC1 | -2% | 0.21
37 | C[C@@H](C(=O)N(C)C1CCCCC1)S(=O)(=O)C1CCCC1 | -9% | 1.18
38 | CCn1c(-c2cccnc2)nc2cc(NC(=O)COC)cc(C(=O)NCCCN3CCOCC3)c21 | -14% | 1.95
39 | CCN(CC(=O)Nc1ccc(OC)cc1)C(=O)c1cccc(S(=O)(=O)N2CCN(c3ccccc3)CC2)c1 | -16% | 3
40 | CCC(C)[C@@H](NC(=O)Nc1ccccc1F)C(=O)OC (stereo partly drawn) | 8% | -1.04
41 | Cn1cccc1C(=O)NCCNC(=O)[C@@H]1CCO1 | 34% | -0.78
42 | Fc1ccc(CN2CC(N3CCOCC3)C2)c(F)c1 | 7% | -1.46

Row | SMILES | % Inhibition | Z score
43 | COCCN(CC(F)F)C(=O)N[C@@H](C)c1cn(C)nc1C | -8% | 1.03
44 | Cc1ccccc1[C@@H](NS(=O)(=O)C1CCS(=O)(=O)CC1)C1CC1 | 1% | -0.19
45 | CCOc1nnc(CN2CCN(C(=O)c3ccco3)CC2)s1 | -7% | 0.94
46 | Cc1nc2c(c(N3CCCC3)n1)CCN(C(=O)c1ccc(C)[nH]c1=O)C2 | -10% | 1.45
47 | COCc1ncc(C)n1CC1CCN(C(=O)c2cc(C)n(C)n2)CC1 | -11% | 1.41
48 | CCc1c(C)sc(NC(=O)c2cccnc2)c1C(=O)NC1CCCCC1 | -6% | 0.73
49 | Cc1ccc(F)c(CN2CC[C@H]3NCCC[C@]3(C(=O)O)C2)c1Cl | -11% | 2.05
50 | O=C(NCc1cncc(N2CCCC2=O)c1)c1cccc(Cl)c1 | -9% | 1.6
51 | NC(=O)c1csc(C(=O)N2CC[C@@]3(CCCN(Cc4ccccc4)C3)C2)c1 | 3% | -0.43
52 | CCc1nc(CC)n(Cc2nc(N(C)C)no2)n1 | 8% | -0.96
53 | Cc1ccccc1[C@H]1C[C@H](NC(=O)NC[C@H]2CCCCN(C)C2)C1 | -5% | 0.82
54 | O=C(Cn1cnc(C2CC2)cc1=O)NCc1nc(-c2cc(C3CC3)on2)no1 | 15% | -1.84
55 | Cn1cccc1-c1noc([C@H]2CCN(Cc3nc(-c4ccc(F)cc4)no3)C2)n1 | -6% | 0.8
56 | C[C@H]1CN(CCNC(=O)Nc2cc(C(=O)N(C)C)ccn2)CCO1 | -7% | 1.24
57 | CCc1ccc(C(=O)N(CC(=O)N(Cc2ccc(F)cc2)Cc2sccc2C)CC(C)C)cc1 | -5% | 0.77
58 | CC(C)N(C)Cc1nnnn1CC(=O)NCc1c[nH]nc1-c1ccc(F)cc1 | 17% | -2.2
59 | Cc1nccn1CC(C)CNC(=O)N[C@@H]1C[C@H]1c1cccc(F)c1 (stereo partly drawn) | 11% | -1.38
60 | Cc1cc(=O)c(C(=O)NCCC2=CC[C@H]3C[C@@H]2C3(C)C)cn1C | -9% | 1.46
61 | CC(C)(CC(N)=O)NC(=O)CN1CCN(C(=O)OC(C)(C)C)CC1 | -11% | 1.25
62 | O=C(Cn1cnc2nc(N3CCOCC3)sc2c1=O)NCc1ccc2c(c1)OCO2 | -7% | 1.21
63 | CN(Cc1cscn1)C(=O)c1cnn(-c2ncc3c(n2)-c2ccccc2CCC3)c1C1CC1 | -12% | 1.3

Row | SMILES | % Inhibition | Z score
64 | Cc1csc(Oc2ccc(NC(=O)C3CC(=O)C3)cc2F)n1 | 11% | -1.3
65 | CC(C)(C)OC(=O)NCc1nnc(N)o1 | -8% | 0.96
66 | Fc1cc(-c2cncc(-c3nnn[nH]3)c2)ccc1Cl | -11% | 2.1
67 | Cc1nc(C(=O)N2CCCCC2C2CCCCC2O)c(C)o1 (stereo not drawn) | -4% | 0.85
68 | COC(=O)C1(NCc2nnc(C(C)C)n2C)CCC1 | 4% | -0.45
69 | O=C(NCCCOc1cccnc1)c1cn(C[C@H]2COc3ccccc3O2)nn1 | -9% | 1.17
70 | CCc1nc(CC)n(CC(=O)Nc2cc(C)nn2C)n1 | 29% | -3.33
71 | Cn1c(NC(=O)C2CCCCC2)c(-c2ccc(Cl)c(Cl)c2)c(=O)c2ccccc21 | 2% | -0.38
72 | CNC(=NCc1ccc(C)cc1OCC1CC1)NC1CC1 | -4% | 0.7
73 | CC(C)n1c(C2CCCC2)nn(C)c1=O | -9% | 1.34
74 | COc1ccc(-c2noc([C@H](C)O)c2C(=O)N2CCN(c3ccccc3OC)CC2)cc1OC | -11% | 1.76
75 | CCOC(=O)[C@H]1CNC(=O)CC12CCN(C(=O)OC(C)(C)C)CC2 | -6% | 0.98
76 | Cc1nccn1CC(=O)NCC1CCN(C(=O)c2ncoc2C(C)C)CC1 | -6% | 0.75
77 | COc1ccc(S(=O)(=O)Nc2ccc3n(c2=O)C[C@H]2C[C@@H]3CN(Cc3cn(C)c4ccccc34)C2)cc1 | -6% | 0.92
78 | O=C(Nc1ccc2c(c1)OCO2)N1CCC(Oc2cccnn2)CC1 | -14% | 2.68
79 | Cc1ccccc1OCCCNC(=O)N1CCC2OCCN(C)C2C1 (stereo not drawn) | -4% | 0.48
80 | O[C@H](COCc1ccccc1)Cc1nc(-c2ccsc2)no1 | -15% | 1.39
81 | CCOc1nc(-c2cccs2)n(-c2cccc(NC(=O)c3ccc(F)cc3)c2)n1 | 10% | -1.16
82 | O=C1CCCN1CC(=O)N1CCC[C@H](c2[nH]ncc2-c2ccc(F)cc2)C1 | -6% | 0.84
83 | Cn1cc(CCCNc2ccc(F)cn2)cn1 | 36% | -4.83
84 | CN(C1CCCCC1)S(=O)(=O)c1ccc2c(c1)CCC(=O)N2 | -10% | 1.36
